# Measured values from publication PMC4336329 (PLoS ONE, 2015).
# In all, about 310,000 compounds went through this assay and about 2,200 (0.71%) showed an effect of 50% or more. Effects have a minus sign here. The list shows a part of the results.
# Biological target: human ether-à-go-go-related gene (hERG) potassium channel (human, UniProt Q12809)
# Test: primary screen, population patch clamp on CHO cells stably expressing hERG
# human ether-à-go-go-related gene (hERG) potassium channel, sequence (Q12809 whole entry, looked up): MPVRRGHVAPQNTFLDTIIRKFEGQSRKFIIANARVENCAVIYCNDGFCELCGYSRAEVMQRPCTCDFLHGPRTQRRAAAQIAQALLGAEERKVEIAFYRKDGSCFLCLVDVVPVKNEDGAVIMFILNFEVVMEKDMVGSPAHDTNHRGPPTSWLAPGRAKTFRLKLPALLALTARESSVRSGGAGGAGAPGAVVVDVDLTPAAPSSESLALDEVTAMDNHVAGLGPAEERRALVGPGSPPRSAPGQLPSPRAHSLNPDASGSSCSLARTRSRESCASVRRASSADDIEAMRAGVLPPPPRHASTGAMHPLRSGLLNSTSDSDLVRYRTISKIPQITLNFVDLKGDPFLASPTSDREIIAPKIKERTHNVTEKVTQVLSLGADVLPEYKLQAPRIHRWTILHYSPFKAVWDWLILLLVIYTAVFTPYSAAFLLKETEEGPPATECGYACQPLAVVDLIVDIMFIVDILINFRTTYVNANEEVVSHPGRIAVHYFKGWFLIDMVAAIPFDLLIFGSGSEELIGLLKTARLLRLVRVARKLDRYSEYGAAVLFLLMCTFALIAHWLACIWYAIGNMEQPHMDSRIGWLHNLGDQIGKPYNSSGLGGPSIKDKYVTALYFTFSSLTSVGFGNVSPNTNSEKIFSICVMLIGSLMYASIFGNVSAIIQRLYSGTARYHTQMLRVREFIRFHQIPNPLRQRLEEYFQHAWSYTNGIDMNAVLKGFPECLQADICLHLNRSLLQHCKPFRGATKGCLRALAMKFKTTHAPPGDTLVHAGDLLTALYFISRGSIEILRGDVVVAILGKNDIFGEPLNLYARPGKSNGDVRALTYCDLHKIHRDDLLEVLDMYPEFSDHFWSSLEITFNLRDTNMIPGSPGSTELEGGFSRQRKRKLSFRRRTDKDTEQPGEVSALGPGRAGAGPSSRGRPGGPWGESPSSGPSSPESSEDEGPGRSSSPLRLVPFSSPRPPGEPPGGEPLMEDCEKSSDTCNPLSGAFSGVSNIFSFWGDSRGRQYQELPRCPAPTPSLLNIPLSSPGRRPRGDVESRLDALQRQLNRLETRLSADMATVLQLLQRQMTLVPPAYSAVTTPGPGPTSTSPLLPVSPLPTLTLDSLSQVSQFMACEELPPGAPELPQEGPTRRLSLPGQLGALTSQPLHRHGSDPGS
row,Structure (SMILES),"hERG current change (%, negative = inhibition) at 1uM"
1,CCNc1ccc(S(=O)(=O)C(F)(F)F)cc1NC(=O)C12CCC(CC1)C2,13.9%
2,O=C(CCC(=O)Nc1ccccc1)N/N=C/c1ccc2c(c1)OCO2,10.1%
3,CC(OC(=O)c1nsc(Cl)c1Cl)C(=O)NCCc1ccccc1 (centres unmarked),0.395%
4,CCOc1cc(/C=N\NC(N)=O)cc(Br)c1OC(C)C,-11.6%
5,O=C(NCCc1ccccn1)c1cc(-c2ccccc2Cl)nc2ccccc12,6.1%
6,Cl.c1coc(CN(Cc2cccs2)Cc2nnnn2C2CCCCC2)c1,7.27%
7,CN1C/C(=C\c2ccc(N3CCOCC3)cc2)C(=O)/C(=C/c2ccc(N3CCOCC3)cc2)C1,3.12%
8,COC(=O)c1sc(S(=O)(=O)Nc2ccc3cn[nH]c3c2)c(C(=O)OC)c1C,11.8%
9,COc1cccc(NC(=O)c2cccs2)c1,4.72%
10,CCC(=O)NC(/C=C/c1ccccc1)c1cc([N+](=O)[O-])c2cccnc2c1O (centres unmarked),10.8%
11,Cc1nccn1CC(O)COc1ccc(Cl)cc1Cl (centres unmarked),-17.5%
12,Cn1cc(CN2CCC(C(=O)Nc3ccc(Oc4ccccc4F)cc3)CC2)cn1,-24.8%
13,CC(SCCc1ccccn1)C(=O)O (centres unmarked),-14.5%
14,Cc1ccc(-c2n[nH]c(=O)c3ccccc23)cc1S(=O)(=O)Nc1ccccc1,5.85%
15,CCC1(CC)NC(=O)N(CC(=O)OCC(=O)Nc2ccc(C(F)(F)F)cc2)C1=O,2.71%
16,COc1ccc(-c2cc(-c3ccccc3)nc3ncnn23)cc1,-7.54%
17,CC(=O)N1CCC(=NNc2nc3ccccc3s2)CC1,5.36%
18,O=C(C1CCCCC1)N1CCC(c2nc3c(nnn3Cc3c(F)cccc3Cl)c(=O)[nH]2)CC1,4.1%
19,COc1ccc(OC)c(C(=O)NC(CC(N)=O)c2ccc(NCc3ccc(F)c(F)c3)c([N+](=O)[O-])c2)c1 (centres unmarked),15.7%
20,O=C1Nc2ccccc2S/C1=C/Nc1cccc(Cl)c1,-7.83%

row,Structure (SMILES),"hERG current change (%, negative = inhibition) at 1uM"
1,O=C(Nc1cccc(N2CCCC2)c1)c1cccs1,8.83%
2,Cc1ccc(C(=O)Nc2ccn(Cc3ccc(F)cc3)n2)o1,-4.51%
3,N#Cc1cccc(C(=O)OCC(=O)N2CCCc3ccccc32)c1,14.3%
4,C=CCn1c(C)nnc1SCC(=O)Nc1nc(C)c(C(=O)N(C)C)s1,6.49%
5,COc1ccc(NC(=O)C2CCN(S(=O)(=O)c3cccc4cccnc34)CC2)cc1,10.3%
6,FC(F)(F)c1cc(-c2ccco2)nc(-n2nc(C(F)(F)F)cc2C2CC2)n1,7.08%
7,COc1cc2c(cc1OC)C(c1ccc(Br)cc1)NCC2 (centres unmarked),6.3%
8,COc1ccc([N+](=O)[O-])cc1NC(=O)c1ccco1,5.63%
9,CC(=O)c1ccc(N2CCc3ccccc3C2)c([N+](=O)[O-])c1,5.96%
10,CCOC(=O)COc1ccc(S(=O)(=O)Nc2ccc3c(c2)OCO3)cc1,-1.15%
11,Nc1nc(SCC(=O)Nc2ccc(Cl)cn2)n[nH]1,16.1%
12,O=c1oc2cccnc2n1CCS(=O)(=O)c1ccc(F)cc1,5.75%
13,Cn1cc(CC(=O)N2CCN(c3ccc(Cl)cc3)CC2)c2ccccc21,-0.545%
14,Cc1nc2ccccn2c1-c1ccnc(=S)[nH]1,8.94%
15,CC(=O)c1cccc(NC(=O)N2CCCc3ccccc32)c1,-10.2%
16,C=CCSC1=NN2CCS(=O)(=O)N=C2S1,11.5%
17,O=C(CSc1nncs1)N1c2ccccc2Sc2ccccc21,6.52%
18,CSc1nc2cc(Oc3cccc(Cl)c3Cl)c(Cl)cc2[nH]1,11.2%
19,CCOc1ccc(C(=O)/C=C/c2cc(OC)c(OC)c(OC)c2)cc1,0.469%
20,O=C1c2cccc3cccc(c23)C(=O)N1c1ccccn1,4.02%

row,Structure (SMILES),"hERG current change (%, negative = inhibition) at 1uM"
1,C/C(=N\NC(N)=O)c1c(F)cccc1F,9.38%
2,CC(NC(=O)c1ccc(F)cc1)c1ccccc1 (centres unmarked),8.16%
3,CCc1ccc(C(=O)COC(=O)c2ccco2)cc1,7.44%
4,CCOC(=O)C1CCCN(Cc2ccc(OC)cc2OC)C1 (centres unmarked),-13.6%
5,CC(C)Cn1c(SCc2nc3ccccc3c(=O)[nH]2)nc2ccccc2c1=O,1.85%
6,O=C(NC1CCCc2ccccc21)c1cccc(S(=O)(=O)N2CCOCC2)c1 (centres unmarked),15.2%
7,O=C1CCCN2N=C(SCC(=O)Nc3nccs3)SC2=N1,2.63%
8,Cc1nc2c(cc1C#N)C(=O)c1ccccc1-2,-2.72%
9,COCCn1c(=S)[nH]c2sc3c(c2c1=O)CCC(C)C3 (centres unmarked),15.4%
10,Cc1ccc(Nc2nc(/N=C/N(C)C)n[nH]2)cc1C,0.539%
11,CN(Cc1ncc[nH]1)C(=O)c1cc(COc2c(F)cccc2F)on1,9.97%
12,Cc1occc1-c1nnc(SCC(=O)Nc2ccc(F)cc2)n1Cc1ccccc1,-27.9%
13,Cc1ccc(CN2C(=O)CCC2C(=O)NCCCN2CCOCC2)cc1 (centres unmarked),17.8%
14,Clc1ccc(Nc2ccc(Cl)nn2)cc1,12.7%
15,Cc1cc(C)cc(-n2c(O)c(C=Nc3ccc(N4CCOCC4)cc3)c(=O)[nH]c2=S)c1,2.74%
16,CCOCCCNC(=O)CN1C(=O)COc2ccc(S(=O)(=O)N3CCC(C)CC3)cc21,8.53%
17,CC1=NCCN1S(=O)(=O)c1cc(Cl)ccc1Cl,5.43%
18,COc1ccc(CNc2ccc(-c3ccccc3OC)nn2)cc1,6.34%
19,CCOC(=O)c1ccccc1NC(=O)/C(C)=C/C(=O)O,2.59%
